From the supplement of paper PMC8728848
The list shows a part of the results.

Assays:
Assay in all cases: glycan array binding signal (z-score within array); higher = stronger binding
Details in all cases: glycan notation: IUPAC condensed, linker removed
[1] = molecular target: Gal3S(b1-4)GlcNAc6S
Summary of the method: (§1)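 Columns mapping to the same glycan were averaged after glycan names were converted to IUPAC-condensed notation. The data come from 3228 arrays in the Consortium for Functional Glycomics database, limited to those with an available protein sequence. Binding is reported as a within-array Z-score averaged across arrays of one protein sequence and across linkers.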

[2] = molecular target: Gal3S(b1-4)[Fuc(a1-3)]Glc
Summary of the method: as §1

[3] = molecular target: Gal3S4S(b1-4)GlcNAc
Summary of the method: as §1

[4] = molecular target: Gal3S6S(b1-4)GlcNAc
Summary of the method: as §1

[5] = molecular target: Gal3S6S(b1-4)GlcNAc6S
Summary of the method: as §1

[6] = molecular target: Gal4S(b1-4)GlcNAc
Summary of the method: as §1

[7] = molecular target: Gal4S6S(b1-4)GlcNAc
Summary of the method: as §1

[8] = molecular target: Gal6S(b1-4)Glc
Summary of the method: as §1

[9] = molecular target: Gal6S(b1-4)Glc6S
Summary of the method: as §1

[10] = molecular target: Gal6S(b1-4)GlcNAc
Summary of the method: as §1

[11] = molecular target: Gal6S(b1-4)GlcNAc6S
Summary of the method: as §1

[12] = molecular target: GalNAc(a1-3)Gal
Summary of the method: as §1

[13] = molecular target: GalNAc(a1-3)GalNAc
Summary of the method: as §1

[14] = molecular target: GalNAc(b1-3)Gal
Summary of the method: as §1

[15] = molecular target: GalNAc(b1-3)Gal(a1-4)Gal(b1-4)GlcNAc
Summary of the method: as §1

[16] = molecular target: GalNAc(b1-3)GalNAc
Summary of the method: as §1

[17] = molecular target: GalNAc(b1-4)GlcNAc
Summary of the method: as §1

[18] = molecular target: Glc(a1-4)Glc
Summary of the method: as §1

[19] = molecular target: Glc(a1-6)Glc(a1-6)Glc
Summary of the method: as §1

[20] = molecular target: Glc(b1-4)Glc
Summary of the method: as §1

[21] = molecular target: Glc(b1-6)Glc
Summary of the method: as §1

[22] = molecular target: GlcA(b1-3)Gal
Summary of the method: as §1

[23] = molecular target: GlcA(b1-3)GlcNAc
Summary of the method: as §1

[24] = molecular target: GlcA(b1-6)Gal
Summary of the method: as §1

[25] = molecular target: GlcNAc(a1-3)Gal(b1-4)GlcNAc
Summary of the method: as §1

[26] = molecular target: GlcNAc(a1-6)Gal(b1-4)GlcNAc
Summary of the method: as §1

[27] = molecular target: GlcNAc(b1-2)Gal(b1-3)GalNAc
Summary of the method: as §1

[28] = molecular target: GlcNAc(b1-2)Man(a1-3)[GlcNAc(b1-2)Man(a1-6)]Man(b1-4)GlcNAc(b1-4)GlcNAc
Summary of the method: as §1

[29] = molecular target: GlcNAc(b1-3)Gal
Summary of the method: as §1

[30] = molecular target: GlcNAc(b1-3)Gal(b1-3)GalNAc
Summary of the method: as §1

[31] = molecular target: GlcNAc(b1-3)Gal(b1-4)Glc
Summary of the method: as §1

[32] = molecular target: GlcNAc(b1-3)Gal(b1-4)GlcNAc
Summary of the method: as §1

[33] = molecular target: GlcNAc(b1-3)Gal(b1-4)GlcNAc(b1-3)Gal(b1-4)GlcNAc
Summary of the method: as §1

[34] = molecular target: GlcNAc(b1-3)GalNAc
Summary of the method: as §1

[35] = molecular target: GlcNAc(b1-3)Man
Summary of the method: as §1

[36] = molecular target: GlcNAc(b1-3)[GlcNAc(b1-4)][GlcNAc(b1-6)]GlcNAc
Summary of the method: as §1

[37] = molecular target: GlcNAc(b1-3)[GlcNAc(b1-6)]Gal(b1-4)GlcNAc
Summary of the method: as §1

B1: MUC1-SEA-mFcIgG2a (Homo sapiens), P15941 (SEA domain only) (protein)
chain: DAAQPARRAVRSSSELTSEQKLISEEDLSRLVHNGTSARATTTPASKSTPFSIPSHHSDTPTTLASHSTKTDASSTHHSTVPPLTSSNHSTSPQLSTGVSFFFLSFHISNLQFNSSLEDPSTDYYQELQRDISEMFLQIYKQGGFLGLSNIKFRPGSVVVQLTLAFREGTINVHDVETQFNQYKTEAASRYNLTISDASVSDVPFPFSAQSGSDDDDKALEPRGPTIKPCPPCKCPAPNLLGGPSVFIFPPKIKDVLMISLSPIVTCVVVDVSEDDPDVQISWFVNNVEVHTAQTQTHREDYNSTLRVVSALPIQHQDWMSGKEFKCKVNNKDLPAPIERTISKPKGSVRAPQVYVLPPPEEEMTKKQVTLTCMVTDFMPEDIYVEWTNNGKTELNYKNTEPVLDSDGSYFMYSKLRVEKKNWVERNSYSCSVVHEGLHNHHTTKSFSRTPGKHHHHH
Q: B1 was tested. Which “glycan array binding signal (z-score)” value [1] did it give?
A: 0.662

Q: What about the “glycan array binding signal (z-score)” value [2] of the same binder?
A: -0.067

Q: And the “glycan array binding signal (z-score)” value [3]?
A: 1.68

Q: What about the “glycan array binding signal (z-score)” value [4] of the same binder?
A: 0.879

Q: What about the “glycan array binding signal (z-score)” value [5] of the same binder?
A: 3.49

Q: And the “glycan array binding signal (z-score)” value [6]?
A: 0.176

Q: And the “glycan array binding signal (z-score)” value [7]?
A: 0.978

Q: What about the “glycan array binding signal (z-score)” value [8] of the same binder?
A: 0.644

Q: What about the “glycan array binding signal (z-score)” value [9] of the same binder?
A: 2.14

Q: What about the “glycan array binding signal (z-score)” value [10] of the same binder?
A: -0.439

Q: What about the “glycan array binding signal (z-score)” value [11] of the same binder?
A: 0.906

Q: And the “glycan array binding signal (z-score)” value [12]?
A: 0.321

Q: And the “glycan array binding signal (z-score)” value [13]?
A: -0.233

Q: And the “glycan array binding signal (z-score)” value [14]?
A: -0.37

Q: And the “glycan array binding signal (z-score)” value [15]?
A: -0.118

Q: And the “glycan array binding signal (z-score)” value [16]?
A: -0.037

Q: What about the “glycan array binding signal (z-score)” value [17] of the same binder?
A: -0.184

Q: What about the “glycan array binding signal (z-score)” value [18] of the same binder?
A: -0.359

Q: What about the “glycan array binding signal (z-score)” value [19] of the same binder?
A: -0.276

Q: What about the “glycan array binding signal (z-score)” value [20] of the same binder?
A: -0.267

Q: What about the “glycan array binding signal (z-score)” value [21] of the same binder?
A: 0.282

Q: And the “glycan array binding signal (z-score)” value [22]?
A: 0.184

Q: What about the “glycan array binding signal (z-score)” value [23] of the same binder?
A: -0.276

Q: What about the “glycan array binding signal (z-score)” value [24] of the same binder?
A: 0.092

Q: What about the “glycan array binding signal (z-score)” value [25] of the same binder?
A: -0.13

Q: And the “glycan array binding signal (z-score)” value [26]?
A: -0.14

Q: What about the “glycan array binding signal (z-score)” value [27] of the same binder?
A: -0.321

Q: And the “glycan array binding signal (z-score)” value [28]?
A: -0.274

Q: What about the “glycan array binding signal (z-score)” value [29] of the same binder?
A: -0.151

Q: And the “glycan array binding signal (z-score)” value [30]?
A: 0.025

Q: What about the “glycan array binding signal (z-score)” value [31] of the same binder?
A: 0.003

Q: And the “glycan array binding signal (z-score)” value [32]?
A: -0.309

Q: What about the “glycan array binding signal (z-score)” value [33] of the same binder?
A: -0.388

Q: What about the “glycan array binding signal (z-score)” value [34] of the same binder?
A: -0.033

Q: And the “glycan array binding signal (z-score)” value [35]?
A: 0.606

Q: And the “glycan array binding signal (z-score)” value [36]?
A: -0.427

Q: And the “glycan array binding signal (z-score)” value [37]?
A: -0.582
